Experimental data published in PubChem BioAssay AID1963858 (Molecular Pharmacology Branch, DTP, NCI, 2024).
The source holds more than one record for some entries. Only these are listed. The source may hold further records. The values listed for one entry are repeats (runs, samples, wells, individuals or studies). Marks such as (2×) say how often a value occurs here.

System: HOP-62 multicell spheroids with HUVEC/MSC, viability
Assay: Anticancer human tumor HOP-62 cell line growth inhibition [KRAS2];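 further: viability read after a week of compound exposure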;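 on viability, T/C: 100% = DMSO vehicle-treated spheroids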
Settings: for viability, T/C: stronger effect = lower value; for IC50: compound alone
Excerpt: Multicellular complex tumor spheroid response to RAS pathway inhibitors in combination with a targeted agents in patient-derived cell lines with oncogenic KRAS variants from multiple cancer types
A high-throughput screen of multi-cell type tumor spheroids was designed to identify active combinations of targeted small molecules and KRAS pathway inhibitors. Complex spheroids include a stromal component modeled by human endothelial cells (HUVEC) and fibroblasts modeled by human mesenchymal stem cells (MSCs). The concentration ranges selected for each drug and investigational agent were based upon clinically achievable concentrations if the clinical Cmax of the agent was known.
Compounds. The drugs and investigational agents: BI-3406 (NSC825286), BAY-293 (NSC824723), batoprotafib (TNO155; NSC825523), sotorasib (AMG 510; NSC818433), MRTX1257 (NSC819558), elimusertib (BAY 1895344; NSC800525), molibresib (GSK525762; NSC774829), temuterkib (LY3214996; NSC803410), venetoclax (NSC766270), alisertib (NSC759677), olaparib (NSC753686), talazoparib (NSC767125), erdafitinib (NSC781556), ipatasertib (NSC767898), cabozantinib (NSC761068), nintedanib (NSC756659), abemaciclib (NSC768073), docetaxel (NSC628503), trametinib (NSC758246), and sapanisertib (NSC764658) were obtained from the National Cancer Institute (NCI) Developmental Therapeutics Program Chemical Repository. The FDA-approved anticancer drug set is available from the Developmental Therapeutics Program. […] The stock solutions were prepared in dimethyl sulfoxide (DMSO, Sigma-Aldrich, St. Louis, MO, cat. D2650) at 800-fold the tested concentration and stored at -70 degrees C prior to their use. All drugs and investigational agents were tested over a range starting from a high concentration at or near the clinical Cmax and decreasing in half-log increments. If the clinical Cmax for an agent had not been determined, the highest concentration tested was 10 microM.
Cell Culture. All cells were maintained in an incubator at 37 degrees C and 5% CO2 with 95% humidity. The PDC lines were cultured according to standard operating procedures established by the NCI PDMR (https://pdmr.cancer.gov/sops/default.htm). Briefly, all PDCs were thawed and cultured in Matrigel-coated flasks prepared with a working solution of 1X Ham's F-12 nutrient mix, without supplementation (Invitrogen, Waltham, MA, cat. 11765054), 100 U/mL penicillin-streptomycin (Invitrogen, cat. 15140122), and 2.5% Matrigel (Corning Inc., Corning, NY, cat. 354248) for the first three passages. All PDCs were cultured in complete DMEM/F-12 media containing advanced DMEM/F-12 (Invitrogen, cat. 12634028), 4.9% defined fetal bovine serum, heat inactivated (HyClone Laboratories Inc., Logan, UT, cat. SH30070.03HI), 389 ng/mL hydrocortisone (Sigma-Aldrich, cat. H4001), 9.7 ng/mL human EGF recombinant protein (Invitrogen, cat. PHG0313), 23.4 microg/mL adenine (Sigma-Aldrich, cat. A2786), 97.3 U/mL penicillin-streptomycin (Invitrogen, cat. 15140122), 1.9 mM L-glutamine (Invitrogen, cat. 25030081), and 9.7 microM Y-27632 dihydrochloride (Tocris Bioscience, Bristol, United Kingdom, cat. 1254). The PDCs were cultured in complete DMEM/F12 media without 9.7 microM Y-27632 dihydrochloride for at least two passages prior to the screen. The established cell line HOP-62 was cultured in RPMI 1640 medium, HEPES (Invitrogen, cat. 22400105) with 10% defined fetal bovine serum (HyClone Laboratories Inc., cat. SH30070.03) and 2 mM L-glutamine (Invitrogen, cat. 25030081). The pooled donor HUVEC were cultured in endothelial cell growth medium 2 (PromoCell, Heidelberg, Germany, cat. C-22011) and the hMSC were cultured in mesenchymal stem cell growth medium 2 (PromoCell, cat. C-28009). For all experiments, HUVEC and hMSC were used at passages </=5, while the malignant cell lines were used at passages </=15. […]

| SMILES | viability, T/C (compound alone 0.0316 µM) | viability, T/C (compound alone 0.1 µM) | viability, T/C (compound alone 0.316 µM) | viability, T/C (compound alone 3.16 µM) | IC50 (run of 07/12/2021) | IC50 (run of 07/19/2021) | IC50 | viability, T/C (compound alone 0.00316 µM) | viability, T/C (compound alone 1 µM) | viability, T/C (compound alone 10 µM) | viability, T/C (compound alone 0.01 µM) | IC50 (run of 07/26/2021) |
| --- | --- | --- | --- | --- | --- | --- | --- | --- | --- | --- | --- | --- |
| C=CC(=O)N1CCN(c2nc(OCC3CCCN3C)nc3c2CCN(c2cccc4cccc(C)c24)C3)CC1CC#N (stereo unspecified) | 83.1, 94.4, 70.4, 58.9, 81, 83.8, 76.5, 63.4, 61.9, 79.1, 77.4, 79.4, 83.2, 78.4, 84.5, 72.2, 80% | 61.7, 72.7, 43.6, 50.7, 67.9, 61, 62.1, 66, 57.4, 99.1, 54.8, 66.7, 60.1, 68, 74, 69.4, 56% | 49, 56.1, 33.6, 35.3, 52.9, 42.4, 21, 39.7, 31.4, 37.4, 58.1, 60.8, 99.4, 49.7, 62.7, 50.4, 52.5% | 89.6, 14.6, 12.5, 18.6, 17.2, 12.1, 0.12, 0.3, 0.13, 0.49, 0.39, 1.07, 0.34, 7.34, 6.48, 3.48, 6.84% | > 3.16 µM, 438 nM, 89.2 nM, 87.9 nM, 361 nM, 247 nM | 131, 222, 122, 239, 410 nM |  |  |  |  |  |  |
| CC(C)n1nc(-c2ccc3oc(N)nc3c2)c2c(N)ncnc21 |  |  |  |  |  |  | 8.94, 7.13, 6.46, 6.38, 2.88 nM | 80, 65.9, 59.7, 63.4, 46.5% |  |  |  |  |
| COc1cc(OC)cc(N(CCNC(C)C)c2ccc3ncc(-c4cnn(C)c4)nc3c2)c1 | 103 (2×), 94.6, 137, 102% | 104 (2×), 96.1, 122, 93.7% | 88.4, 102, 86.2, 42.9, 94.3% | 59.1, 78.5, 64.9, 4.83, 74.7% |  |  | 4.08 µM, 5.67 µM, 4.73 µM, 288 nM, 5.63 µM |  | 79.7, 95.3, 82.9, 11.3, 89.7% | 21.9, 22.3, 25.3, 0.85, 26.2% |  |  |
| C=CC(=O)N1CCN(c2nc(=O)n(-c3c(C)ccnc3C(C)C)c3nc(-c4c(O)cccc4F)c(F)cc23)C(C)C1 (stereo unspecified) |  | 60.7, 81.5, 56.3, 46.9, 66.9, 67.3, 61.1, 57, 51.6, 57.1, 61.2, 63.4, 66.6, 63.2, 72.4, 62.1, 66.2% | 58.7, 70, 50.4, 51.4, 77, 34.3, 63.1, 56.9, 57.2, 57.6, 37.1, 69.3, 79.9, 68.4, 74.1, 72.1, 69.5% |  | 7.76 µM, < 100 nM, > 10 µM |  |  |  | 75.7, 71.5, 52.4, 50.4, 59.9, 63.1, 59.2, 64.1, 58.6, 66.3, 64.3, 65.4, 71.6, 58.9, 66.8, 64, 71.7% | 47.9, 65.1, 48.9, 53.9, 54.9, 45.2, 48.4, 46.9, 38.7, 44.7, 40.3, 45, 47.2, 47 (2×), 45.1, 49.6% |  |  |
| COc1cc2nccc(Oc3ccc(NC(=O)C4(C(=O)Nc5ccc(F)cc5)CC4)cc3)c2cc1OC |  | 91.9, 97.6, 78.5, 118, 94.6% | 101, 97.2, 96.4, 125, 106% |  |  |  | 7.09 µM, 6.05 µM, > 10 µM, 8.5 µM |  |  | 51, 36.6, 20.9, 118, 45.7% |  |  |
| O=C(c1cc(Cc2n[nH]c(=O)c3ccccc23)ccc1F)N1CCN(C(=O)C2CC2)CC1 |  |  |  | 51.2, 55, 79.1, 78.5, 78.7% |  |  |  |  | 76.5, 68.3, 93, 84, 97.1% |  |  |  |
| CNCc1ccccc1-c1csc(C(C)Nc2nc(C)nc3cc(OC)c(OC)cc23)c1 (stereo unspecified) |  |  | 107, 111, 93.5 (2×), 69.6, 93.2, 93, 99.3, 90.8, 75.2, 95.8, 101, 103, 106, 104, 115, 90.7% | 103, 102, 58.7, 2.2, 0.23 (2×), 38.2, 0.3, 0.42, 0.18, 3.61, 0.37, 1.17, 4.01, 0.28, 5.22, 22.7% | 5.72, 5.71, 3.76, 1.33, 1.8, 2.31 µM |  |  |  | 101, 104, 89.7, 65.7, 102, 81.6, 68.7, 81.2, 69.6, 82.5, 79.5, 83.4, 88.1, 94.9, 92.6, 95.5, 89.4% |  |  |  |
| CC1COCCN1c1cc(-c2ccnn2C)c2ccnc(-c3ccn[nH]3)c2n1 (stereo unspecified) | 81.3, 83.3, 91.1, 11, 80.1% | 31.3, 35.1, 34.3, 6.95, 28.9% |  |  |  |  | 64.9 nM, 69.9 nM, 72.6 nM, < 10 nM, 62.2 nM |  |  |  | 105, 101, 99.7, 24.1, 98.9% |  |
| CCNC(=O)CC1N=C(c2ccc(Cl)cc2)c2cc(OC)ccc2-n2c(C)nnc21 (stereo unspecified) |  |  |  |  |  |  |  |  |  | 44.9, 45.4, 41.8, 19.1, 43.2% |  |  |
| COc1cc(Nc2ncc3c(n2)-c2ccc(Cl)cc2C(c2c(F)cccc2OC)=NC3)ccc1C(=O)O | 38.9, 64.4, 65.2, 69.4, 66.2% | 38.3, 64.2, 60.8, 62.2, 65.1% |  |  |  |  | < 31.6 nM, 850 nM, 375 nM, 401 nM, 633 nM |  |  |  |  |  |
| CC1OCC2(CCN(c3cnc(Sc4ccnc(N)c4Cl)c(N)n3)CC2)C1N (stereo unspecified) |  |  | 72.6, 90.3, 82, 70.4, 86.6, 91.6, 83.4, 84.5, 80.3, 73.1, 65, 86.4, 63.1, 53.7, 90.7, 86.9, 93.2, 87.2, 83.7% | 33.6, 66.4, 42.9, 43.3, 42.4, 30.6, 38.2, 32.1, 54.7, 50.5, 41.8, 72.4, 54.5, 67, 45.3, 71.9, 50.6, 60.2, 43.1, 72% |  | 1.01 µM, 1.23 µM, > 10 µM, 2.9 µM, 1.4 µM |  |  | 92.2, 108, 92.1, 57.6, 62.3, 71.3, 50, 54, 72, 64.2, 57.7, 78.4, 60.3, 68.7, 67.7, 77.8, 69.2, 78.7, 75.2, 86.2% | 40.9, 39.4, 44.8, 38.1, 27, 35.5, 31.5, 55.8, 33.9, 29, 63.2, 40.3, 51.3, 46.6, 49.8, 47, 57.1, 46.3, 67% |  | 2.61 µM, > 10 µM, 2.96 µM, 2.59 µM, 5.2 µM |
| COc1cc2nc(C)nc(NC(C)c3cc(N)cc(C(F)(F)F)c3)c2cc1OC1CCOC1 (stereo unspecified) |  | 88.1, 101 (2×), 104, 99.4, 95.3, 73.9, 103, 98.5, 95.5, 96.2, 102, 94.8, 28.5, 10.7, 99.8, 88.4% | 67.4, 109, 91.4 (2×), 83.9, 92.8, 93.5, 77.8, 93.9 (2×), 84.1, 96.5, 93.8, 62.8, 99.2, 105, 97.2% | 50.9, 68.3, 62.9, 60.6, 52.8, 61.5, 54.7, 60.4, 73, 83.5, 63.8, 76.3, 73.8, 109, 95.6, 84.6, 90.2% |  | 3.86 µM, 6.46 µM, > 10 µM, 9.32 µM |  |  | 95.5, 105, 101 (2×), 76.7, 83.4, 79.6, 58.6, 72.2, 84.5, 87.6, 90, 91.7, 92.1, 84.3, 113, 96.6% | 53.8, 59.5, 103, 49.4, 51.6, 51.8, 40.4, 44.6, 62.8, 56.4, 49.1, 56.2, 57.6 (2×), 64, 62, 60.8% |  | > 10 µM and < 100 nM |
